The target of the experiment is T1, recombinant human TL1A-his (processed secreted human TL1A with an N-terminal his-tag) (human, UniProt O95150 72-251).
T1 construct: also called recombinant histidine tagged human TL1A; histidine-tagged human TL1A
T1 sequence: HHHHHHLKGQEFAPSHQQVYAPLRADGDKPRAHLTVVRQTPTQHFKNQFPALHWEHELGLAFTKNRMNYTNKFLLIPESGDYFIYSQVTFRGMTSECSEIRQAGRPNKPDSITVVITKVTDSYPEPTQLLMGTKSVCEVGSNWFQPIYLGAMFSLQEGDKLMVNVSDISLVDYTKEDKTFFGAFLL
Nature of the experiment: SPR (BIAcore 2000), antibody captured on protein-A, his-tagged human TL1A as analyte. The method, then: Kinetic binding affinity constants (KD) were measured on protein-A captured antibody using recombinant histidine tagged TL1A as analyte. Measurements were conducted on a BIAcore 2000 (GE Healthcare—BIAcore, GE Healthcare Europe GmbH, Glattbrugg, Switzerland) at room temperature, and analyzed with the BiaEvaluation software (BIAcore; v4.1. GE Healthcare Europe GmbH).
Following this capture step, the recombinant histidine tagged human TL1A was injected at different concentrations (1.25 to 125 nM) on the flow-path 1 and 2 (flow-path 1 being used as reference) at a 30 μl/min flow rate. After each binding event, surface was regenerated with glycine buffer pH 1.5 injected for 20 sec (30 μL/min).
Measurements (sensorgram: fc2-fc1) were best fitted with a 1:1 analyte model without mass transfer. To account for the experimental variations in protein-A captured antibody at the beginning of each measurement, the Rmax value was set to local in all fits. Dissociation times were of at least 300-600 seconds. Measurements were performed in duplicate and included zero-concentration samples for referencing. The Chi2 value represents the sum of squared differences between the experimental data and reference data at each point; while the plots of residuals indicate the difference between the experimental and reference data for each point in the fit. […]
(Surface plasmon resonance follows binding to a sensor surface in real time, without labels.)

B1: VH5/VL1 humanized 5G6 antibody (IGHG1) (antibody, human IgG1, kappa)
heavy: QVQLVQSGAEVKKPGASVKVSCKASGYTFTSSWMHWARQAPGQGLEWMGEIHPNSGGTNYAQKFQGRVTMTVDTSISTAYMELSRLRSDDTAVYYCARGDYYGYVSWFAYWGQGTLVTVSS[human IgG1 constant region not written out]
light: DIQMTQSPSSLSASVGDRVTITCQASQNINVLLNWYQQKPGKAPKLLIYKASNLHTGVPSRFSGSGSGTDFTFTISSLQPEDIATYYCQQGQSYPYTFGQGTKLEIKRTVAAPSVFIFPPSDEQLKSGTASVVCLLNNFYPREAKVQWKVDNALQSGNSQESVTEQDSKDSTYSLSSTLTLSKADYEKHKVYACEVTHQGLSSPVTKSFNRGEC
For the molecule B1, the dissociation constant Kd (in general, the constant that tells how readily two partners part at equilibrium) amounted to 0.259 nM.
